Counter-ions that a name gives are not always drawn. Whole data set: some 2,800 compounds, median “cell viability relative to vehicle” near 0.98, cut for the lowest 2% near 0.45. The list shows a part of the results.
These compounds were tested on NCI-H2228 alectinib-DTP (assay: cell viability relative to vehicle (fraction of vehicle); NCI-H2228 is an ALK-positive lung cancer line and DTP means drug-tolerant persister; higher = less growth inhibition). Settings: 100 nM; treatment time 6 days.
Method in brief: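 Each value is viability relative to vehicle-treated cells, measured as ATP with the CellTiter-Glo 3D Cell Viability Assay. Parental NCI-H2228 cells and drug-tolerant persisters (1000 nM targeted drug, 13 days) in 384-well plates received the 3114-agent TargetMol anti-cancer compound library at 100 nM, or DMSO, and were read 6 days later.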
In the case of O=P(O)(NCCCl)NCCCl [Palifosfamide], the cell viability is reported as 1.17.
In the case of O=C/C=C/c1ccccc1 [Cinnamaldehyde], the cell viability is reported as 1.09.
In the case of N#Cc1nn(-c2c(Cl)cc(C(F)(F)F)cc2Cl)c(N)c1[S+]([O-])C(F)(F)F (stereo not drawn) [Fipronil], the cell viability is reported as 0.905.
For CC[C@@]1(O)C(=O)OCc2c1cc1n(c2=O)Cc2cc3ccccc3nc2-1 [(S)-(+)-Camptothecin], the cell viability was 0.36.
CN1c2ccccc2C(NCCCCCCC(=O)O)c2ccc(Cl)cc2S1(=O)=O (stereo not drawn) [Tianeptine sodium] showed a cell viability of 0.83.
Work on COC(=O)Nc1nc2ccccc2[nH]1 [Carbendazim] yielded a cell viability of 1.
c1cnc(N2CCNCC2)nc1 [2-(1-Piperazinyl)pyrimidine] was tested, and the cell viability was 0.928.
Work on C[C@H]1CCC2N(C1)C[C@H]1C3CC4[C@@H](CC(=O)C5C[C@@H](O)CC[C@@]54C)C3CCC1[C@]2(C)O (stereo partly drawn) [Peiminine] yielded a cell viability of 1.12.
Compound CCc1c2c(nc3ccccc13)-c1cc3c(c(=O)n1C2)COC(=O)[C@]3(O)CC [7-Ethylcamptothecin] has a cell viability of 0.361.
CCNC(=O)C[C@@H]1N=C(c2ccc(Cl)cc2)c2cc(OC)ccc2-n2c(C)nnc21 [Molibresib] was tested, and the cell viability was 1.06.
CC(C)=CCC[C@]1(C)C=Cc2c(O)c3c(c(CC=C(C)C)c2O1)O[C@]12C(=C[C@@H]4C[C@H]1C(C)(C)O[C@@]2(C/C=C(/C)C(=O)O)C4=O)C3=O [Gambogic Acid] gave a cell viability of 0.943.
Cc1ncc(CNC(=O)N(CCCl)N=O)c(N)n1 [Nimustine Hydrochloride] gave a cell viability of 0.963.
COC(=O)[C@]1(C)CC[C@]2(C)CC[C@]3(C)C4=CC=C5C(=CC(=O)C(O)=C5C)[C@]4(C)CC[C@@]3(C)[C@@H]2C1 [Pristimerin] gave a cell viability of 1.01.
With C[C@H]1CCC/C=C/[C@@H]2C[C@H](O)C[C@H]2[C@H](O)/C=C/C(=O)O1 [Brefeldin A] the cell viability was 0.0894.
With CCC12C=CCN3CC[C@@]4(c5ccc(OC)cc5N(C)[C@H]4[C@@](O)(C(=O)OC)[C@@H]1OC(C)=O)[C@@H]32 (stereo partly drawn) [Vindoline] the cell viability was 1.1.
With O=C(CBr)c1ccc(O)cc1 [PTP Inhibitor I] the cell viability was 0.976.
c1c2c(cc3c1OCO3)-c1cc3ccc4c(c3c[n+]1CC2)OCO4 [Coptisine] showed a cell viability of 1.06.
In the case of c1c2c(cc3c1OCO3)-c1cc3ccc4c(c3c[n+]1CC2)OCO4 [Coptisine chloride], the cell viability is reported as 1.1.
N.N.[Cl][Pt][Cl] [Cisplatin] was tested, and the cell viability was 0.919.
COc1cc(-n2c(=S)[nH]c3ccccc3c2=O)c(Cl)cc1Cl [Mdivi 1] gave a cell viability of 1.03.
Compound CC1=C(O)C(=O)C=C2C1=CC=C1[C@@]2(C)CC[C@@]2(C)[C@@H]3C[C@](C)(C(=O)O)CC[C@]3(C)CC[C@]12C [Celastrol] has a cell viability of 1.1.
For O=C(O)CCCc1ccc(N(CCCl)CCCl)cc1 [Chloroambucil], the cell viability was 0.908.
O=C(O[C@H]1C[C@H]2CC[C@@H](C1)[N+]21CCCC1)C(O)(c1ccccc1)c1ccccc1 [Trospium chloride] showed a cell viability of 1.01.
In the case of COc1ccc(C(=O)N2CCCC2=O)cc1 [Aniracetam], the cell viability is reported as 1.
Compound O=C(O)CCCCCCCCCO [10-Hydroxydecanoic Acid] has a cell viability of 1.04.
Work on C[C@]12CCC(=O)C=C1CC[C@@H]1[C@@H]2C(=O)C[C@]2(C)C(=O)CC[C@@H]12 [Adrenosterone] yielded a cell viability of 1.07.
For COc1ccc(-n2nc(C(F)(F)F)cc2-c2ccc(Cl)cc2)cc1, the cell viability was 1.21.
Work on Clc1ccc([C@]23CNC[C@H]2C3)cc1Cl [Amitifadine hydrochloride] yielded a cell viability of 1.06.
Cc1c(C(=O)Nc2cccc(C(F)(F)F)c2)cc(-c2ccccc2)n1CCCN1CCOCC1 gave a cell viability of 0.946.
For CC(C)=CCC[C@H](C(=O)O)[C@H]1CC[C@]2(C)C3=C(CC[C@@]12C)[C@@]1(C)CCC(=O)C(C)(C)[C@H]1CC3 [β-Elemonic Acid], the cell viability was 1.2.
For NC(=O)CN1CC(O)CC1=O (stereo not drawn) [Oxiracetam], the cell viability was 1.02.
Compound COc1cc([C@@H]2c3cc4c(cc3[C@H](O)[C@H]3COC(=O)[C@@H]23)OCO4)cc(OC)c1OC [Picropodophyllin] has a cell viability of 0.997.
C1=C2CCCN[C@H]2[C@@H]2C[C@H]1[C@H]1CCCCN1C2 [Aloperine] gave a cell viability of 0.901.
Work on CN1CCC(c2c[nH]c3ccc(O)cc23)CC1 yielded a cell viability of 0.933.
For COCC1(CO)C(=O)C2CCN1CC2 (stereo not drawn), the cell viability was 0.995.
With Cc1ccccc1-n1c(Cn2cnc3c(N)ncnc32)nc2cccc(C)c2c1=O the cell viability was 1.07.
C=CC[C@]1(O)CC[C@H]2[C@@H]3CCC4=CC(=O)CCC4=C3C=C[C@@]21C [Altrenogest] showed a cell viability of 0.948.
C/C(=C\c1csc(C)n1)[C@@H]1C[C@@H]2O[C@]2(C)CCC[C@H](C)[C@H](O)[C@@H](C)C(=O)C(C)(C)[C@@H](O)CC(=O)O1 [Epothilone B] was tested, and the cell viability was 0.433.
C=C[C@H]1CN2CC[C@H]1C[C@@H]2[C@@H](O)c1ccnc2ccccc12 [Cinchonine] showed a cell viability of 1.17.
C1CCc2nnnn2CC1 [Pentetrazol] showed a cell viability of 0.812.
C/C=C/c1cc(OC)c(OC)cc1OC [alpha-Asarone] was tested, and the cell viability was 0.92.
For COC[C@H]1OC(=O)c2coc3c2[C@@]1(C)C1=C(C3=O)[C@@H]2CCC(=O)[C@@]2(C)C[C@H]1OC(C)=O [Wortmannin], the cell viability was 0.978.
With C=CCN1CC[C@]23c4c5ccc(O)c4O[C@H]2[C@@H](OCCOCCOCCOCCOCCOCCOCCOC)CC[C@@]3(O)[C@H]1C5 [Naloxegol oxalate] the cell viability was 0.968.
CN1[C@@H]2CC(O)C[C@H]1[C@@H]1O[C@@H]12 (stereo partly drawn) [Scopine] was tested, and the cell viability was 0.85.
O=S(=O)(CC1CS1)c1ccc(Oc2ccccc2)cc1 (stereo not drawn) showed a cell viability of 1.03.
With CC1(C)CC(O)CC(C)(C)N1[O] [Tempol] the cell viability was 1.11.
For CC(=O)OC(C)(C)/C=C/C(=O)[C@](C)(O)[C@H]1[C@H](O)C[C@@]2(C)[C@@H]3CC=C4[C@H](C[C@H](O)C(=O)C4(C)C)[C@]3(C)C(=O)C[C@]12C [Cucurbitacin B], the cell viability was 0.146.
CC(C)(C)c1cc(C(C)(C)C)c2c(c1)C(O)(C(F)(F)F)C(=O)O2 (racemic) was tested, and the cell viability was 1.01.
Compound NCCCNCCCN [Bis(3-aminopropyl)amine] has a cell viability of 0.833.
In the case of C#C[C@]1(O)CC[C@H]2[C@@H]3CCC4=CC(=O)CC[C@]4(C)[C@H]3CC[C@@]21C [Ethisterone], the cell viability is reported as 1.2.
O=C(N[C@H]1CN2CCC1CC2)c1ccc(Cl)cc1 gave a cell viability of 0.931.
In the case of CC[C@H]1CN2CC[C@H]1C[C@@H]2[C@@H](O)c1ccnc2ccc(OC)cc12 [Hydroquinidine], the cell viability is reported as 0.987.
Compound COc1ccc(/C=C/c2cc(OC)cc(OC)c2)cc1 [Trimethoxystilbene] has a cell viability of 0.876.
With C=CC[C@]1(O)CC[C@H]2[C@@H]3CCC4=CCCC[C@@H]4[C@H]3CC[C@@]21C [Allylestrenol] the cell viability was 0.995.
NCC(CC(=O)O)c1ccccc1 (stereo not drawn) [Phenibut] gave a cell viability of 1.03.
Work on NCCc1ccc(S(=O)(=O)F)cc1 [AEBSF hydrochloride] yielded a cell viability of 1.05.
For CN1[C@@H]2CC[C@H]1C[C@@H](OC(=O)[C@H](CO)c1ccccc1)C2 [L-Hyoscyamine], the cell viability was 1.
Compound CCC(C)C(=O)O[C@@H]1[C@@H](OC(C)=O)[C@]2(C)[C@H](C(C)=O)CC[C@@]23O[C@]32CC[C@H]3C[C@@H](O[C@H]4C[C@@H](OC)[C@H](O[C@@H]5O[C@H](C)[C@@H](O)[C@@H](OC)[C@H]5O)[C@@H](C)O4)CC[C@]3(C)[C@@H]12 (stereo partly drawn) [Tenacissoside H] has a cell viability of 1.14.
With C[C@]12CC[C@H](O)C[C@H]1CC[C@@H]1[C@@H]2CC[C@]2(C)[C@@H](c3ccc(=O)oc3)CC[C@]12O [Bufalin] the cell viability was 0.101.
CC(C)N(CCC(C(N)=O)(c1ccccc1)c1ccccn1)C(C)C (stereo not drawn) [Disopyramide] was tested, and the cell viability was 0.95.
With C[C@@]12C[C@@H](c3ccoc3)OC(=O)[C@@H]1CC[C@]1(C)[C@H]2[C@@H]2C=C[C@@]1(O)C(=O)O2 [Columbin] the cell viability was 1.21.
In the case of CCO[C@H]1O[C@@H]2O[C@@]3(C)CC[C@H]4[C@H](C)CC[C@@H]([C@H]1C)[C@@]24OO3 [Arteether], the cell viability is reported as 0.856.
CC(C)=CCOc1c2occc2cc2ccc(=O)oc12 [Imperatorin] was tested, and the cell viability was 0.925.
Compound N[C@@H](Cc1ccc(N(CCCl)CCCl)cc1)C(=O)O [Melphalan] has a cell viability of 0.917.
CCCC[N+]1(C)[C@@H]2C[C@@H](OC(=O)[C@H](CO)c3ccccc3)C[C@H]1[C@@H]1O[C@@H]12 (stereo partly drawn) [Scopolamine butylbromide] gave a cell viability of 0.906.
S=C=NCc1ccccc1 [Benzyl isothiocyanate] gave a cell viability of 1.13.
Cc1cccc(C)c1NC(=O)CN1CCCC1=O [Nefiracetam] gave a cell viability of 1.17.
C=CCN1CC[C@]23c4c5ccc(O)c4O[C@H]2C(=O)CC[C@@]3(O)[C@H]1C5 [Naloxone hydrochloride] was tested, and the cell viability was 0.907.
For C[C@@H]1CC[C@@]2(OC1)O[C@H]1C[C@H]3[C@@H]4CC=C5C[C@@H](O[C@@H]6O[C@H](CO)[C@@H](O[C@@H]7O[C@@H](C)[C@H](O)[C@@H](O)[C@H]7O)[C@H](O)[C@H]6O[C@@H]6O[C@@H](C)[C@H](O)[C@@H](O)[C@H]6O)CC[C@]5(C)[C@H]4CC[C@]3(C)[C@H]1[C@@H]2C [Dioscin], the cell viability was 0.873.
Work on Cn1cc(C2=C(c3cn(C4CCN(Cc5ccccn5)CC4)c4ccccc34)C(=O)NC2=O)c2ccccc21 [Enzastaurin] yielded a cell viability of 1.01.
NC(=O)c1cc(N2CC2)c([N+](=O)[O-])cc1[N+](=O)[O-] [Tretazicar] gave a cell viability of 0.945.
In the case of CC(=O)O[C@H]1C[C@@H]2CC[C@@H]3[C@H](CC[C@@]4(C)[C@H]3C[C@H]([N+]3(C)CCCCC3)[C@@H]4OC(C)=O)[C@@]2(C)C[C@@H]1[N+]1(C)CCCCC1 [Pancuronium bromide], the cell viability is reported as 1.06.
C[N+]1([O-])[C@@H]2CC(OC(=O)[C@H](CO)c3ccccc3)C[C@H]1[C@@H]1O[C@@H]12 (stereo partly drawn) [Scopolamine N-oxide HBr] was tested, and the cell viability was 1.07.
